According to PubChem BioAssay AID651820 (National Center for Advancing Translational Sciences (NCATS), 2012):
“And” between values parts separate entries of the source, which are not always exact repeats. Equal entries are not always repeated. In all, about 340,000 compounds went through this assay and about 12,000 (3.5%) were called active. The inconclusive results got no clear call from the source; some entries with a clear call stand among them for comparison. Calls follow the shape of the dose curve; as a rule, active = well fitted inhibition curve with a large enough effect; inconclusive = small, poorly fitted or top-dose-only effect, or another doubt; inactive = no such curve, though single readings can be large or run the other way. Potencies beside an inconclusive call are fits to weak or partial responses and may not hold up.

experiment: qHTS Assay for Inhibitors of Hepatitis C Virus (HCV); settings: Huh7.5.1 HCVcc-Cre (HCVcc is cell-culture hepatitis C virus) infection, luciferase reporter, 44 h; activity change, negative = inhibition: at 41.8 µM (top of the series)
Method in brief: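 Seed cells (1,000/well) for 4 h; treat with compound and infect with HCVcc-Cre, moi about 0.5. Incubate 44 h, then detect luciferase activity.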
% is scaled to controls: 0 for no effect and ±100 for the full control effect; potency is read from the fitted curve at half-maximal effect; tags tell the direction and shape of the fitted curve.

| SMILES | Potency | activity change, negative = inhibition |
| --- | --- | --- |
| COc1ccc2c(c1)c(CCN)c(C)n2Cc1ccccc1 | inconclusive: 31.6 µM [inhibitor, single point] |  |
| CCN(Cc1cc(=O)n2cc(Cl)c(C)c(Cl)c2n1)Cc1nc2ccccc2c(=O)[nH]1 | inconclusive: 1 µM [inhibitor, full curve, poor fit] |  |
| CC(=O)C1=C(c2ccc(Br)cc2)C(=O)c2ccccc2C1=O | inconclusive: 2.82 µM [inhibitor, full curve] |  |
| CCCC(=O)Nc1cccc(S(=O)(=O)N(C)c2ccccc2)c1 | inconclusive: 8.91 µM [inhibitor, partial curve, poor fit] |  |
| COc1cc(CN2CCC(C(=O)N3CCN(c4ccccc4F)CC3)CC2)cc(OC)c1OC | inconclusive: 11.2 µM [inhibitor, single point] |  |
| COc1cccc(NC(=O)CN(C)C(=O)c2cccc(S(=O)(=O)Nc3ccc(C)cc3)c2)c1 | inconclusive: 14.1 µM [inhibitor, single point] |  |
| CS(=O)(=O)N(CC(=O)NCc1ccc2c(c1)OCO2)c1ccccc1 |  | inactive: 13.9% |
| CC1(C)C(=O)Nc2ccccc2N1C(=O)COC(=O)c1cc([N+](=O)[O-])ccc1N | inconclusive: 31.6 µM [inhibitor, single point] |  |
| COc1ccc(NC(=O)CSc2nc3c(sc4ccccc43)c(=O)n2CCCN2CCCC2)cc1 | active: 2.51 µM |  |
| Cc1nn(S(=O)(=O)c2ccc(Cl)cc2)c(C)c1Sc1ccc([N+](=O)[O-])cc1 | inconclusive: 10 µM [inhibitor, partial curve] |  |
| CC(C)CN=C(NS(=O)(=O)c1ccccc1)C(Cl)(Cl)Cl | active: 5.01 µM |  |
| CCN1C(=O)c2cccc3c(S(=O)(=O)N(C(C)=O)c4ccc(OC(C)=O)cc4)ccc1c23 | inconclusive: 11.2 µM [inhibitor, partial curve] |  |
| CC(C)Cc1nc2ccccc2[nH]1 |  | inactive: 12.3% |
| C=CCOc1ccc(/C=N/Nc2ccccn2)cc1OC | active: 14.1 µM |  |
| Nc1cc(-c2ccc(Cl)cc2)nn1S(=O)(=O)c1cccc2nsnc12 | inconclusive: 31.6 µM [inhibitor, single point] |  |
| C=CC[n+]1c(-c2ccc(C)cc2)csc1Nc1c(C)n(C)n(-c2ccccc2)c1=O |  | inactive: -27.2% |
| O=C(CNCCC1=CCCCC1)Nc1ccccc1N1CCCCC1 | inconclusive: 31.6 µM [inhibitor, single point] and inconclusive: 22.4 µM [inhibitor, single point] |  |
| COc1ccc(CNC(=O)C2CCN(c3cc(C(=O)Nc4cccc(OC)c4)ccn3)CC2)cc1 | inconclusive: 3.98 µM [inhibitor, partial curve] |  |
| Oc1ccc(Cl)cc1-c1cc(C(F)(F)C(F)F)nc(-c2ccccc2)n1 | inconclusive: 14.1 µM [inhibitor, partial curve] |  |
| Cc1ccccc1NC(=S)c1nc2ccccc2[nH]1 | inconclusive: 11.2 µM [inhibitor, single point] |  |
| CC1(c2ccccc2)NC(=O)N(CC(=O)NCc2cccc(Cl)c2)C1=O (stereo not given) | inconclusive: 3.16 µM [inhibitor, single point] |  |
| C/C(=N\Nc1ccccn1)c1ccc(OC(F)F)cc1 | active: 8.91 µM |  |
| COc1cc(C(=O)NCCOc2ccccc2C)c(Br)c(OC)c1OC | inconclusive: 11.2 µM [inhibitor, single point] |  |
| CC1CN(C)C(C)C/C1=N\Oc1ccc([N+](=O)[O-])cc1 (stereo not given) | inconclusive: 11.2 µM [inhibitor, partial curve] |  |

| SMILES | Potency | activity change, negative = inhibition |
| --- | --- | --- |
| C/C(=N\NC(=O)Cn1c(C)nc2ccccc21)c1cccs1 | inconclusive: 11.2 µM [inhibitor, single point] |  |
| COc1cc(NC(=O)Cc2ccccc2)ccc1NC(=O)c1ccco1 | inconclusive: 31.6 µM [inhibitor, single point] |  |
| COC(=O)c1ccc(C23CC4(C2)[C@H](CN(CC2CCCCC2)[C@@H]4c2ccccc2)C3c2ccc(Cl)nc2)cc1 (stereo not given in full) |  | inactive: 2.43% |
| COC1=Cc2c(ccc3ccc(=O)oc23)OC1(C)C | inconclusive: 11.2 µM [inhibitor, single point] |  |
| O=C(c1ccco1)N1N=C(c2ccc(Cl)cc2)CC1c1ccco1 (stereo not given) | inconclusive: 11.2 µM [inhibitor, single point] |  |
| O=c1[nH]c2ccc(S(=O)(=O)Nc3ccc(Cl)cc3)cc2[nH]1 |  | inactive: 1.12% |
| COc1cc(C)ccc1S(=O)(=O)N1CCN(C23CC4CC(CC(C4)C2)C3)CC1 | inconclusive: 31.6 µM [inhibitor, single point] |  |
| CCN1C(c2ccccc2)=C(c2ccccc2)S/C1=C\C=C1/SC(=S)N(C)C1=O | inconclusive: 3.55 µM [inhibitor, full curve] |  |
| CCOc1ccc(-c2nnn(CC#N)n2)cc1OC | inconclusive: 11.2 µM [inhibitor, single point] |  |
| C#CC[N+](C)(C)CCCCCCCCC | inconclusive: 31.6 µM [inhibitor, single point] |  |
| COc1cccc(N2CC(O)=C(c3nc4ccccc4c(=O)[nH]3)C2=N)c1 | inconclusive: 6.31 µM [inhibitor, full curve] |  |
| COCc1c(C(=O)Nc2ccc3nc(N4CCOCC4)sc3c2)oc2ccccc12 | inconclusive: 31.6 µM [inhibitor, single point] |  |
| COc1cc(CN(C(=O)c2ccco2)c2ccc(C)cc2)ccc1O |  | inactive: 4.47% |
| COc1cc2c(cc1OC)C(C)N(C(=O)Nc1ccc(F)cc1)CC2 (stereo not given) |  | inactive: -25.9% |
| COc1cc(Cl)c(C)cc1NC(=O)c1cc(S(=O)(=O)N(C)C)ccc1N1CCCC1 | inconclusive: 31.6 µM [inhibitor, single point] |  |
| COc1ccc(-n2c(=S)[nH]c3cc(C(=O)N4CCN(c5ccccc5)CC4)ccc3c2=O)c(OC)c1 |  | inactive: 1.69% |
| COC(=O)c1ccc(CNC(=O)[C@@H]2CCCN2S(=O)(=O)c2ccccc2F)cc1 |  | inactive: 0.671% |
| CN1CCN(C(=S)Nc2ccc(Cl)cc2)CC1 |  | inactive: -5.24% |
| O=C(NNC(=S)Nc1ccccc1)c1cccs1 |  | inactive: 26.7% |
| Brc1cc(-c2ccccc2)nc(-c2ccccc2)n1 | active: 11.2 µM |  |
| CCOC(=O)c1c(C)n(C)c2ccc(OCC(O)CN3C(=O)c4ccccc4S3(=O)=O)cc12 (stereo not given) | inconclusive: 7.94 µM [inhibitor, partial curve, poor fit] |  |
| Cc1ccc(C(C(=O)NCc2ccco2)N(CCc2ccccc2)C(=O)Cn2nnc3ccccc32)o1 (stereo not given) |  | inactive: -2.39% |
| CCN1CCN(Cc2nc3c(c(=O)n(C)c(=O)n3C)n2Cc2cccc3ccccc23)CC1 | inconclusive: 10 µM [inhibitor, partial curve] |  |
| COc1ccc(C(=O)OCC2CC(c3ccccc3)=NO2)cc1OC (stereo not given) | inconclusive: 3.98 µM [inhibitor, full curve] |  |

| SMILES | Potency | activity change, negative = inhibition |
| --- | --- | --- |
| CCCN(CC(=O)Nc1ccc(C)cc1Br)CC(=O)Nc1ccc(F)c(F)c1F | inconclusive: 5.62 µM [inhibitor, single point] |  |
| COc1ccc(-c2cc(C(F)(F)F)nc(SCC(=O)Nc3sc4c(c3C#N)CCC4)n2)cc1 | inconclusive: 0.501 µM [inhibitor, full curve, poor fit] |  |
| O=C(NC(=S)Nc1nc(-c2ccccc2)cs1)c1cccnc1 |  | inactive: 6.24% |
| CSc1nc(C)cc(SCC(=O)Nc2ccc(Cl)cc2Cl)n1 | inconclusive: 10 µM [inhibitor, partial curve] |  |
| CCC1CN(C(=O)Nc2ccc(C)cc2)c2cc(C)ccc2O1 (stereo not given) | inconclusive: 3.55 µM [inhibitor, partial curve] |  |
| COc1ccc(/C=N/NC(=O)CCn2nnc3ccccc32)cc1 |  | inactive: -1.78% |
| O=C(NCC1(c2ccccc2)CCCC1)c1ccccc1 |  | inactive: -1.67% |
| COc1ccc(-c2nc(CS(=O)(=O)CC(=O)NCc3cccc(Br)c3)c(C)o2)cc1 |  | inactive: 8.12% |
| CN(CC(=O)Nc1ccc([N+](=O)[O-])cc1Br)Cc1c(F)cccc1Cl | active: 14.1 µM |  |
| Cc1cccc(Nc2nc(N)c([N+](=O)[O-])c(N3CCOCC3)n2)c1 |  | inactive: -11.7% |
| O=C(Nc1ccccc1N1CCCCC1)c1ccccc1F | inconclusive: 0.891 µM [inhibitor, full curve] |  |
| Cc1ccc(NC(=O)COC(=O)C2=COCCO2)cc1 |  | inactive: 7.75% |
| COc1ccccc1/C=C/C(=O)c1ccc(NC(C)=O)cc1 | inconclusive: 3.16 µM [inhibitor, partial curve] |  |
| Cc1oc(S(=O)(=O)N2CCCCC2)cc1NC(=O)Nc1ccc(F)cc1 | inconclusive: 22.4 µM [inhibitor, single point] |  |
| Cc1cccc(C)c1OCc1cc(C(=O)N2CCCC2c2nonc2C)no1 (stereo not given) | inconclusive: 2.82 µM [inhibitor, partial curve] |  |
| Cc1cc(C)cc(NC(=S)NC2CC3CCCC(C2)N3C2CCCC2)c1 (stereo not given) | inconclusive: 22.4 µM [inhibitor, single point] |  |
| Cc1ccc(NC(=S)Nc2cccc3cnccc23)c(C)c1 | inconclusive: 31.6 µM [inhibitor, single point] |  |
| O=[N+]([O-])c1cc(S(=O)(=O)N2CCCCCC2)ccc1F | inconclusive: 14.1 µM [inhibitor, single point] |  |
| Cc1nc(C2COc3ccccc3O2)sc1C(=O)O (stereo not given) |  | inactive: -12.1% |
| COc1ccc(C(=O)c2sc(Nc3ccccc3F)nc2N)cc1 | inconclusive: 11.2 µM [inhibitor, partial curve] |  |
| CN(CC(=O)Nc1ccccc1C(F)(F)F)C(=O)COc1ncnc2ccccc12 |  | inactive: 7.23% |
| COc1ccccc1NS(=O)(=O)c1cccc2cccnc12 | inconclusive: 31.6 µM [inhibitor, single point] |  |
